According to the supplement of paper PMC11417369:
The list shows a part of the results.

tested on: PfHDP1 homeodomain (GST-tagged); assay: gcPBM binding intensity (ln(normalized median fluorescence intensity)); higher = stronger DNA binding
In short: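 Binding of GST-tagged P. falciparum DNA-binding domains, expressed in E. coli and used at about 25 μg on average, was carried out for 1 h in 1× PBS containing 1% milk, 0.2 mg/ml BSA, 0.5% salmon testes DNA and 0.03% Triton X-100. The target was an Agilent 4 × 180k array of primer-extended double-stranded 36-bp intergenic genomic probes plus negative controls, read with Alexa488 anti-GST antibody at 488 nm. Binding intensity is the highest Masliner-normalised natural-log median intensity across replicate spots of either probe orientation.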

Sequence | gcPBM binding intensity (ln)
TTATAATAATATAATACATGCATATATATTTAAATA [TGCATGCA_site903] | 6.6
AATTTAATATAATGCACACATAAAACAAAAACAAAA [CACACA_site529] | 10.5
TATTATCGTTCTCATACACACAAAATATACATACAC [CACACA_site2643] | 7.05
TACGTAAATGTGTGTGTGCACGTTATATATTAATAT [GTGCAC_site9976] | 9.38
CATTTTTTATTTCCTTGTACGAATAAAATATATTTA [XGTACX_site6844] | 6.69
AAAAAAAAAAAAAACATACACACAATAAAATAGGGG [CACACA_site2398] | 6.84
ATATAATAATAAAGACGTACAAATGTATATATATAC [XGTACX_site3123] | 7.02
ATGTAAGTTGTGCATTCACACACATATATATATATA [CACACA_site9086] | 9.58
ATTTTTTTTTTTTTTTTTTTTTTATTCTTGTAATCT [CACACA_negctrl_site1039] | 5.84
GAATATTAATTCATACGTACTTATATATAAGTATAT [XGTACX_site3707] | 6.39
AAAATGAATAAAAATACACACATATCTGTTATTCTC [CACACA_site5474] | 6.33
TCACTATAATAATTTACACACATTTTAAGAAAATGT [CACACA_site3530] | 6.61
TATAAAAATGGGCACACACACACATATATATATTTA [CACACA_site1527] | 6.8
TATTTAAATTTTAAGTGTACATATTTATTTATATCT [XGTACX_site6545] | 6.47
ATATATATATATATAACACACGCAAAAAAATTAAAT [CACACA_site8395] | 9.06
AAAAAAAAAAAAATCACACATAATATAGAATATGTA [CACACA_site4993] | 6.13
AACTTAAAAAATAAATGTACATAAATATAAACATAT [XGTACX_site2987] | 6.59
TTTTTTAACAAAAATAAAACATAACTGAATTAAAAG [GTGCAC_negctrl_site244] | 6.41
CTTCCTATATTTTACTGTACTTTTTTTTTTTTTTTT [XGTACX_site4016] | 6.51
AAACCTTTACATCGTTTGCACTATATTGATATGTGT [GTGCAC_site9686] | 8.85
CATACATACATACATACACACACATATATATATATA [CACACA_site8593] | 9.27
ACGAATTAAATTTGCTGTACCAAAAAGAAAACAATA [XGTACX_site5511] | 6.33
GCTTCTTAATATCATACACACATAGATATATTTATA [CACACA_site5676] | 7.05
GGAGACTTTGTATTGGGTACGTATTTCAATGCATGT [XGTACX_site1596] | 6.31
